According to PubChem BioAssay AID588342 (National Center for Advancing Translational Sciences (NCATS), 2011):
The campaign covered roughly 360,000 compounds. About 25,000 (6.9%) were called active. The inconclusive results got no clear call from the source; some entries with a clear call stand among them for comparison. Calls follow the shape of the dose curve; as a rule, active = well fitted inhibition curve with a large enough effect; inconclusive = small, poorly fitted or top-dose-only effect; inactive = flat fitted curve, though single readings scatter. Where the call is inconclusive, the potency comes from a doubtful curve fit.

target: Luciferin 4-monooxygenase (Photinus pyralis) (UniProt P08659); assay: qHTS profiling assay for firefly luciferase inhibitor/activator using purifed enzyme and Km concentrations of substrates (counterscreen for miR-21 project); conditions: purified FLuc, luminescence inhibition; series mostly up to 57.5 µM; activity change, negative = inhibition: at the top concentration; also: nearly all actives have a fitted effect of over 55% in size;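 as to activity change, negative = inhibition: plate controls were vehicle for no effect and reference inhibitor for full effect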
Sequence of UniProt P08659 (P08659 whole entry, looked up): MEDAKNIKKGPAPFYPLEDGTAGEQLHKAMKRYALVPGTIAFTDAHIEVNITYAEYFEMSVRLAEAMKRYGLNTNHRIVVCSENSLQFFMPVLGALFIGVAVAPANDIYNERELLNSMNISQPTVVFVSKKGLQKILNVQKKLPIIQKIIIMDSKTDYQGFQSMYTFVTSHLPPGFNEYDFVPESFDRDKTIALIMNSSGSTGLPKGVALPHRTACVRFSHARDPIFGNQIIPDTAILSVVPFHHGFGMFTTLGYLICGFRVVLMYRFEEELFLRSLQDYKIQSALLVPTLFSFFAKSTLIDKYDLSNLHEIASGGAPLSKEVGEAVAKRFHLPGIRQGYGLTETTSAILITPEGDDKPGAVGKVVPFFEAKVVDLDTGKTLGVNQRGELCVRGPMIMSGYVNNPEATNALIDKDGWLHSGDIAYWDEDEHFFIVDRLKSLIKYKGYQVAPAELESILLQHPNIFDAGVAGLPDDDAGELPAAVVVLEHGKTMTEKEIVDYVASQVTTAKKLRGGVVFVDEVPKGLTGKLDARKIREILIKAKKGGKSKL
How it was run: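 Biochemical qHTS of compounds, final roughly 60 µM downward over six points, against 10 nM purified firefly luciferase using Km concentrations of substrates (10 uM D-luciferin, 10 uM ATP) in Tris acetate pH 7.5 buffer; luminescence output.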
Potency is read from the fitted curve at half-maximal effect; tags tell the direction and shape of the fitted curve.

Compound | Potency | activity change, negative = inhibition
O=c1c2ccccc2nnn1CSc1ccccc1F | active: 2.69 µM | –
Cc1cc(C(=O)NCCCn2ccnc2)sc1-c1ccccc1 | inconclusive: 16.9 µM [inhibitor, partial curve] | –
COC(=O)c1sccc1NC(=O)COc1ccc(F)cc1Cl | inconclusive: 12 µM [inhibitor, partial curve, poor fit] | –
C/C(=N\NC(=O)c1cccc2ccccc12)c1cccs1 | inconclusive: 21.3 µM [inhibitor, partial curve] | –
COc1ccc(NC(=O)Nc2nnc(-c3ccccc3F)s2)cc1 | – | inactive: -3.42%
CCN(C(=O)COc1ccc(F)cc1Br)c1c(N)n(Cc2ccccc2)c(=O)[nH]c1=O | – | inactive: 3.23%
O=C(CN1C(=O)C2C3C=CC(C3)C2C1=O)Nc1nc(SCc2ccc(Cl)cc2)n[nH]1 (stereo unspecified) | inconclusive: 26.9 µM [inhibitor, single point] | –
O=C(Nc1nc(-c2ccc(-c3ccccc3)cc2)cs1)C1CCCO1 (stereo unspecified) | active: 8.49 µM | –
O=C(Cn1c(=O)oc2cc(S(=O)(=O)N3CCCCC3)ccc21)NCc1ccc(F)cc1 | inconclusive: 30.1 µM [inhibitor, partial curve, poor fit] | –
Cc1cc(N/N=C/c2ccc(N(C)C)cc2)c2ccccc2n1 | inconclusive: 23.9 µM [inhibitor, single point] | –
CC1=CC(=C2N=C(c3ccccc3)OC2=O)C=C(C)O1 | inconclusive: 30.1 µM [inhibitor, single point] | –
CCOC(=O)/C(C#N)=N/Nc1ccccc1C#N | inconclusive: 37.9 µM [inhibitor, single point] | –
CCN(CC)S(=O)(=O)c1cccc(C(=O)NCCCn2ccnc2)c1 | – | inactive: -2.23%
COc1ccc(-c2nc(SCC(=O)NCCc3ccccc3)n[nH]2)cc1 | active: 16.9 µM | –
O=C(NCCc1csc(-c2cccnc2)n1)c1cccs1 | inconclusive: 26.9 µM [inhibitor, partial curve, poor fit] | –
C(=C\c1cc(/C=C/c2ccccc2)ncn1)/c1ccccc1 | active: 12 µM | –
Cc1ccc2onc(CC(=O)N3CCN(c4ccccc4)CC3)c2c1 | inconclusive: 23.9 µM [inhibitor, partial curve, poor fit] | –
CN(C)S(=O)(=O)c1cccc(NC(=O)Cc2ccc(Cl)cc2)c1 | inconclusive: 30.1 µM [inhibitor, partial curve, poor fit] | –
O=C(NNC(=O)c1cc(S(=O)(=O)N2CCCCC2)ccc1Cl)c1ccccc1O | inconclusive: 37.9 µM [inhibitor, single point] | –
N#C/C(=C\c1cc(Br)c(O)c(Br)c1)c1nc2ccccc2c(=O)[nH]1 | active: 15.1 µM | –
COc1c(C)cc(C(=O)C2CCCN(C(=O)c3ccoc3)C2)cc1C (stereo unspecified) | inconclusive: 37.9 µM [inhibitor, single point] | –
O=C(N/N=C/c1cc(Br)ccc1O)c1ccncc1 | inconclusive: 21.3 µM [inhibitor, partial curve, poor fit] | –
O=C(C[n+]1ccccc1)Nc1c(Cl)cc(Cl)cc1Cl | inconclusive: 19 µM [inhibitor, partial curve] | –

Compound | Potency | activity change, negative = inhibition
O=C(Nc1nnc(C2CCCCC2)s1)c1ccc(Br)s1 | inconclusive: 5.36 µM [inhibitor, partial curve, poor fit] | –
C#CCNC(=O)/C=C/c1ccc(C)cc1 | active: 10.7 µM | –
O=C(c1ccccc1)[C@@H]1[C@@H](C(=O)c2ccc(F)cc2)[C@@]2(C(=O)Nc3ccccc32)[C@H]2c3ccccc3C=CN12 | inconclusive: 10.7 µM [inhibitor, partial curve, poor fit] | –
CCCSc1nnc2c(n1)OC(c1cccs1)Nc1ccc(Br)cc1-2 (stereo unspecified) | inconclusive: 26.9 µM [inhibitor, single point] | –
Cc1c(Cl)cccc1NC(=O)Nc1ccc2snnc2c1 | inconclusive: 26.9 µM [inhibitor, single point] | –
CCCCn1c(N)c(N(CCOC)C(=O)CSc2nnc(-c3ccc(C(C)(C)C)cc3)n2N)c(=O)[nH]c1=O | inconclusive: 16.9 µM [inhibitor, partial curve] | –
CCCn1c(-c2nonc2N)nc2ccccc21 | – | inactive: 0.128%
N#Cc1c(NC(=S)NC(=O)Cc2cccs2)sc2c1CCCCC2 | inconclusive: 21.3 µM [inhibitor, single point] | –
COc1cccc(C(=O)n2nc(-c3cccnc3)nc2NCc2ccc(F)cc2)c1 | – | inactive: 1.78%
COC(=O)c1ccc2c(=O)n(CCCCCC(=O)N3CCN(c4ccc(Cl)cc4)CC3)c(=O)[nH]c2c1 | – | inactive: 6.28%
O=C(COc1ccc([N+](=O)[O-])cc1)Nc1cccc2nsnc12 | – | inactive: 1.22%
O=C(O)CNS(=O)(=O)c1ccc2c(c1)Cc1cc(S(=O)(=O)NCC(=O)O)ccc1-2 | – | inactive: 5.92%
Clc1ccccc1Cn1nnc(-c2ccccc2)n1 | active: 21.3 µM | –
CCOc1ccc(C(=O)Nc2cccc(-c3ccc4nncn4n3)c2)cc1 | active: 8.49 µM | –
CCOC(=O)c1ccc(NC(=O)c2cc3c(s2)CCC3)cc1 | inconclusive: 6.75 µM [inhibitor, full curve] | –
C=CCNc1ncnc2c1[nH]c1ccc(C)cc12 | active: 4.26 µM | –
O=C(CNc1ccccc1)N/N=C/c1ccc2c(c1)OCO2 | inconclusive: 21.3 µM [inhibitor, single point] | –
Cc1ccc(CN(C)C(=O)c2cccc(S(=O)(=O)N3CCc4ccccc4C3)c2)o1 | – | inactive: 4.18%
Cc1c(Cl)cccc1Nc1nn2c(=O)c3ccc(C(=O)NCCC4=CCCCC4)cc3nc2s1 | – | inactive: -6.67%
Nc1nc(-c2ccccc2)[nH]c(=O)c1N | inconclusive: 15.1 µM [inhibitor, partial curve, poor fit] | –
Cc1ccccc1-c1noc(-c2ccccc2C(=O)NCc2ccco2)n1 | inconclusive: 37.9 µM [inhibitor, single point] | –
CC(=O)N1CCN(Cc2nc3cc(NC(=O)c4ccc(Cl)cc4)ccc3n2C)CC1 | inconclusive: 26.9 µM [inhibitor, single point] | –
CCOc1ccc(C(=O)Nc2ccc(N3CCN(C)CC3)cc2)cc1 | active: 12 µM | –
